The source of these data is PMC5515408.

The other results are listed elsewhere or left out. At the low end of the ranking, values are background and their order means little.

This assay has as its target MAX:MAX (p21) (UniProt P61244-2). The assay is described as follows: protein-binding microarray (anti-MAX antibody). Particulars: PBM: 15 mM Tris-HCl pH 7.5, 100 mM KCl, 0.075% NP40, 7.5 mM beta-mercaptoethanol, 375 ng/ul BSA, 8 ng/ul poly(dA-dT):(dA-dT), 550 ng complex, 60 min, room …; high values mean tight binding; double strand, one strand shown; sequences stand for … in CCGGC…TTAATAGCTAAGATTACTATATCGACG
Regarding TGATGACCTGTA, the binding signal (log2 normalized fluorescence) was determined as 0.612. For the sequence TGAGTAACGGTA, the binding signal (log2 normalized fluorescence) was -0.914. The result for TGATTACAGGTA reads -0.614; that for TGAGTCTCCGTA, -1.17. The result for TGAAGATCTGTA reads -0.94. The result for TGAGGATCTGTA reads -1.03; that for TGAGACGTAGTA, -0.907. For TGAGTTGTGGTA, the binding signal (log2 normalized fluorescence) was -0.427. As for TGATAGTGGGTA, the figure is -0.372. The result for TGATACGAGGTA reads -0.483; that for TGATCGGTCGTA, -1.05. The sequence CGGCACGTGGTA gave a binding signal (log2 normalized fluorescence) of 3.27.

TGCCAAGTGGTG: the binding signal (log2 normalized fluorescence) was determined as 0.331.

TGAAATGTGATA gave a binding signal (log2 normalized fluorescence) of 1.72. Regarding TGACGCGTCGTA, the binding signal (log2 normalized fluorescence) is 0.345. As for TGAGCTTGCGTA, the binding signal (log2 normalized fluorescence) is -0.291. As for TGATACCCAGTA, the binding signal (log2 normalized fluorescence) is -0.866. For the sequence TGAAGTGAAGTA, the binding signal (log2 normalized fluorescence) is -0.601.

The sequence TGATTGGGGGTA yielded a binding signal (log2 normalized fluorescence) of 1.36. On to TGACACGCGGTG, for which the binding signal (log2 normalized fluorescence) worked out at 2.96. Take TGAATGCAGGTA: the binding signal (log2 normalized fluorescence) came out at 0.426. TGAGGTCATGTA: the binding signal (log2 normalized fluorescence) is -0.0101.

Turning to TGAATAACTGTA, the binding signal (log2 normalized fluorescence) was -0.688.

AGACAAGTGCTA displayed a binding signal (log2 normalized fluorescence) of 1.21.

Regarding TGAACTGGGGTA, the binding signal (log2 normalized fluorescence) is -0.27. Regarding TAAAACGTGTTA, the binding signal (log2 normalized fluorescence) came to 3.23.

As for TGAACAGAGGTA, the binding signal (log2 normalized fluorescence) is -0.661. Consider TGAGATCAGGTA, for which the binding signal (log2 normalized fluorescence) is -0.456.

On to TGAAAGACTGTA, for which the binding signal (log2 normalized fluorescence) was -0.564. Take TGATGTATTGTA: the binding signal (log2 normalized fluorescence) was -0.0683.

TGAGTCCGTGTA: the binding signal (log2 normalized fluorescence) was -0.36. Turning to TGAGGCGCTGTA, the binding signal (log2 normalized fluorescence) is -0.414.

For TCACCCGTGATA, the binding signal (log2 normalized fluorescence) came to 2.13. With TGAGCTGTCGTA, the binding signal (log2 normalized fluorescence) is -0.577. The result for TGACATATCGTA reads -0.0327; that for TGATCTATTGTA, -1.22. TGACACGCGATA yielded a binding signal (log2 normalized fluorescence) of 2.93. In the case of AGACACGTGGTC, the binding signal (log2 normalized fluorescence) stood at 3.43.

The sequence TGAGCACAAGTA yielded a binding signal (log2 normalized fluorescence) of 0.993. TGGCCCGTGGGA had a binding signal (log2 normalized fluorescence) of 1.32. TGCCACGACGTA came in with a binding signal (log2 normalized fluorescence) of 1.79. On to AGCGGGTCGCAC, for which the binding signal (log2 normalized fluorescence) is 1.5.

For TGAGGCTCGGTA, the binding signal (log2 normalized fluorescence) was -0.792. As for TGTGACGTGGTA, the figure is 1.45; as for TGAGACCCCGTA, -0.406; as for TGACATGGAGTA, 0.821. With AGACACGTGATC, the binding signal (log2 normalized fluorescence) was 3.05.

On to TGACGACGGGTA, for which the binding signal (log2 normalized fluorescence) is -0.453. For TGACGTAATGTA, the binding signal (log2 normalized fluorescence) is -0.411. The result for TGACGAAGAATC reads -0.78. As for TGAGTTACTGTA, the figure is -1.15; as for TGATTTAACGTA, -0.722. Regarding TGACAGCTAGTA, the binding signal (log2 normalized fluorescence) is -0.629. As to TGAAAGGACGTA, the binding signal (log2 normalized fluorescence) was -0.333. For TGAGATGTTGTA, the binding signal (log2 normalized fluorescence) was -0.642. For TGAAGTCACGTA, the binding signal (log2 normalized fluorescence) stood at 0.658. TGACGCTCTGTA: the binding signal (log2 normalized fluorescence) was -0.348. In turn, AGGTTTCACCGG showed a binding signal (log2 normalized fluorescence) of 0.535.

TGAAACGCTGTA: the binding signal (log2 normalized fluorescence) was 0.387. For TGAACGCATGTA, the binding signal (log2 normalized fluorescence) is 2.88. The result for TGAGTGTTCGTA reads 0.177; that for TGAAATGAGGTA, 0.744. Turning to TGAACTAGAGTA, the binding signal (log2 normalized fluorescence) was -0.827.

On to TGTCACCGGGTA, for which the binding signal (log2 normalized fluorescence) came to 0.511. TGAGAGCATGTA came in with a binding signal (log2 normalized fluorescence) of 2.11. As to TGACACTTAGTA, the binding signal (log2 normalized fluorescence) was -0.364.

With TGATGTACGGTA, the binding signal (log2 normalized fluorescence) was -0.0815.

TGACACGTGATA yielded a binding signal (log2 normalized fluorescence) of 3.05.

For the sequence TGACACAAAGTA, the binding signal (log2 normalized fluorescence) is -0.0109. The result for TGACTCGAGGTA reads 0.974; that for TGCCACTTGGTT, 0.371. For the sequence TGAGCGGGCGTA, the binding signal (log2 normalized fluorescence) was -0.433. TGAATCCTCGTA: the binding signal (log2 normalized fluorescence) is -0.584. TGATCACGGGTA returned a binding signal (log2 normalized fluorescence) of 1.61. The result for TGAGTCGTAGTA reads -1.28. AGCCACGTTGTA had a binding signal (log2 normalized fluorescence) of 3.25.

In the case of TGACACGGAGTA, the binding signal (log2 normalized fluorescence) is 0.609. Take TGAGCGGCGGTA: the binding signal (log2 normalized fluorescence) was -0.806. Turning to TGAGTAGGTGTA, the binding signal (log2 normalized fluorescence) is -0.861. On to TGAGGATATGTA, for which the binding signal (log2 normalized fluorescence) is -0.92. Consider TGAGACGCCGTA, for which the binding signal (log2 normalized fluorescence) is -0.749. TGACACGCTGTT came in with a binding signal (log2 normalized fluorescence) of 3.08. On to TTACACGTGGTG, for which the binding signal (log2 normalized fluorescence) is 3.07. Turning to TGAAGTTCGGTA, the binding signal (log2 normalized fluorescence) is -0.962. Consider TGATGCATAGTA, for which the binding signal (log2 normalized fluorescence) is -0.0981.

For TGACACGTCATA, the binding signal (log2 normalized fluorescence) is 1.39. As for TGAAAGTATGTA, the figure is 0.0414; as for TGATTTGTAGTA, -1.16; as for TGAGTTGCTGTA, -0.63. The result for TGAGAAACGGTA reads -0.778; that for TGACACCTGATC, 2.25; that for TGATTACGGGTA, -0.738.

As for TGAACCCATGTA, the binding signal (log2 normalized fluorescence) worked out at 1.48.

In the case of TGCTACGTAGTA, the binding signal (log2 normalized fluorescence) was -0.764.

For the sequence TGATGTCCAGTA, the binding signal (log2 normalized fluorescence) was -0.249. With TGACACATGGTA, the binding signal (log2 normalized fluorescence) turned out to be 3.15. The result for TGATCCAGGGTA reads -0.85. The result for TGAGACTCTGTA reads -0.979.

Consider TGAAAGATGGTA, for which the binding signal (log2 normalized fluorescence) is -0.31. On to TGACATGGCGTA, for which the binding signal (log2 normalized fluorescence) is 1.13. For CGACCTGTGGTA, the binding signal (log2 normalized fluorescence) was 0.668. TGATGAAACGTA: the binding signal (log2 normalized fluorescence) is -0.297. The result for TGACAACGCGTA reads 0.927; that for TGAGTTTCTGTA, -1.21; that for TCACCCATGGTA, 2.35. On to TGAGTAGCAGTA, for which the binding signal (log2 normalized fluorescence) was -1.21. As for TGAAGTGTAGTA, the figure is -0.529. Turning to TGACTTACCGTA, the binding signal (log2 normalized fluorescence) is -0.339. For the sequence TGACCCTGAGTA, the binding signal (log2 normalized fluorescence) was -0.307. As for TGAACGTGAGTA, the figure is 1.43; as for TGAGGCGGTGTA, -0.63; as for TGACGCTTTGTA, -0.559. For TGAATATCGGTA, the binding signal (log2 normalized fluorescence) is -1.05. As to TGATTCAACGTA, the binding signal (log2 normalized fluorescence) was -0.44. The sequence TGATCGCATGTA returned a binding signal (log2 normalized fluorescence) of 1.97. Take TGAGGCGGCGTA: the binding signal (log2 normalized fluorescence) is -0.641. The result for TGAGTCCGAGTA reads -1.17. As for CTCATCGCGCCT, the binding signal (log2 normalized fluorescence) is 0.579.

Take TGAATAGAAGTA: the binding signal (log2 normalized fluorescence) was -1.13. Consider TGACTCGTGCTA, for which the binding signal (log2 normalized fluorescence) came to 3.13. The result for TGACGTGTAGTA reads 0.928; that for TGAATGTGTGTA, 1.07; that for TGATTAGTCGTA, -1.33. Turning to TGAGCACTGGTA, the binding signal (log2 normalized fluorescence) was -0.181. As for TGAGCAGTTGTA, the binding signal (log2 normalized fluorescence) was -0.641. The result for TGACGGAAGGTA reads -0.707; that for TGACACGTGTTT, 3.34; that for TGACGAAACGTA, -0.518. Consider TGAGGTTGCGTA, for which the binding signal (log2 normalized fluorescence) is -0.504. Regarding TGAGTTTCAGTA, the binding signal (log2 normalized fluorescence) is -1.29. In the case of TGATCTGACGTA, the binding signal (log2 normalized fluorescence) was -0.861.

With TGAAGCGCAGTA, the binding signal (log2 normalized fluorescence) was -0.514. Sequence TGTCGCGTGGTA registered a binding signal (log2 normalized fluorescence) of 3.24. Turning to TGATTGAAGGTA, the binding signal (log2 normalized fluorescence) is -0.899. The result for TGATATCAAGTA reads -0.796.

Regarding TGACAGGTGGTT, the binding signal (log2 normalized fluorescence) is 2.77. TGACCCATGGTT registered a binding signal (log2 normalized fluorescence) of 2.
